ChEMBL document CHEMBL4888484, “Replenishing the malaria drug discovery pipeline: Screening and hit evaluation of the MMV Hit Generation Library 1 (HGL1) against asexual blood stage Plasmodium falciparum ,using a nano luciferase reporter read-out” (2022)
The whole screen tested about 150,000 compounds, of which about 540 (0.36%) showed an effect of 50% or more. The list shows a part of the results.

These compounds were tested on Plasmodium falciparum (assay: Primary screen in NF54 nanoGlo assay, in single point, at 2uM, 72h; a lower Z score goes with more inhibition). Conditions: timepoint 72 hour.
Type: functional, Erythrocyte

Going from `COCCc1nnc2n1CC1CCC(C2)N1C(=O)c1ccc(C(C)C)cc1` (stereo not drawn) to `Cc1ccc([C@H]2c3cc(OCC(=O)NC(C)C)ccc3CCN2C(=O)C2CCCC2)cc1`, the “% Inhibition” value falls from 1% to -4%.

Compared with `Cc1cc(C(=O)Nc2nc3ccc(F)cn3n2)cc(O)n1`, `Cc1ccc(C2=C[C@@H](c3ccccc3Cl)n3nc(NC(=O)c4ccccc4F)nc3N2)cc1` is lower in “% Inhibition” value: -7% for the first, -13% for the second.

Compared with `O=C(Nc1nnc(C2CC2)s1)N1CCC(CN2CCCC2)CC1`, `CN1CCC[C@H]1c1nc(C2CN(C(=O)C3CCCC3)C2)no1` is higher in “% Inhibition” value: -7% for the first, 5% for the second.

Going from `C[C@@H](CNC(=O)CCCn1ccnc1)Oc1ccccc1` to `CCN(CC(=O)Nc1cccc(S(N)(=O)=O)c1)[C@H](COC)Cc1ccccc1`, the “% Inhibition” value rises from -13% to -6%.

First: CN(C)C(=O)N(CCN1CCCCC1)[C@H]1CCN(C(=O)NCc2ccccc2)C1
Second: O=C(NCc1cccs1)N1CCCCCCC1
The “% Inhibition” value of the first is lower: -7% for the first, 1% for the second.

Compared with `O=C(NCC1(OCCO)CCCC1)Nc1cccs1`, `O=C(CCCNC(=O)Nc1ccncc1F)NC1CC1` is higher in “% Inhibition” value: -11% for the first, -4% for the second.

Compared with `O=C(O)C1CCCN1C(=O)C1CC1c1ccccc1C(F)(F)F` (stereo not drawn), `CN(C(=O)c1cc2ccccc2c(=O)n1C)C1CCCC1` is lower in “% Inhibition” value: -5% for the first, -9% for the second.

Compared with `Cc1nn(C)c(C)c1NC(=O)CN1C(=O)COc2ccc(Cl)cc21`, `Cc1cccc(NC(=O)CN2C(=O)CC(c3cccc(Cl)c3)=Nc3cccnc32)c1` is higher in “% Inhibition” value: -1% for the first, 28% for the second.

Going from `O=C(NC[C@H]1CCC(=O)N(Cc2ccccc2)CC1)c1ccoc1` to `CS(=O)(=O)C[C@H]1CCCN(Cc2nc(-c3ccccc3)cs2)C1`, the “% Inhibition” value falls from 28% to -25%.

Compared with `Cc1cc(N(C)C)nc(N2CCO[C@@H](CN(C)C)C2)n1`, `Cc1cc(C)c2oc(N3CCC[C@H](n4cc(CN)nn4)C3)nc2c1` is lower in “% Inhibition” value: -6% for the first, -8% for the second.

Going from `Oc1ccccc1C1=NC(CN2CCCCC2)C(=S)C1c1ccccc1` (stereo not drawn) to `CC(=O)N1CCCN(C(=O)c2cc(-c3ccccc3)[nH]n2)CC1`, the “% Inhibition” value falls from -9% to -15%.

Going from `Cc1nc(CN2CCN(C(=O)c3ccc(C)n3C)CC2)n[nH]1` to `O=C(c1ccco1)N1CCN(c2cc3c(nn2)CCCC3)CC1`, the “% Inhibition” value falls from 3% to -21%.

Going from `CCC(=O)N(C)c1nc2ccccc2n(CC(=O)Nc2cccc3ccccc23)c1=O` to `O=C(Cn1nc2ccc(-c3ccccc3)nn2c1=O)Nc1cccc(Cl)c1`, the “% Inhibition” value falls from -1% to -3%.

Compared with `O=C(c1cn2c3c(cccc3c1=O)CCC2)N1CCCC1`, `O=C1CCCN1c1ccc(N2CCCC2=O)cc1` is lower in “% Inhibition” value: -15% for the first, -25% for the second.

Going from `CC(C)[C@@H]1CCO[C@@H]1CNC(=O)NCc1ccc2occc2c1` to `CCc1nnc(CNC(=O)c2ccc(CN3CCC(C)CC3)o2)s1`, the “% Inhibition” value falls from 31% to -13%.

Compared with `CC(=O)c1ccc(NC(=O)c2ncn3c2C(=O)N(C2CC2)[C@](C)(C(=O)NCc2ccc(C)cc2)C3)cc1`, `O=C(C[C@@H]1NC(=O)N(Cc2ccc3c(c2)OCO3)C1=O)Nc1cccc(O)c1` is higher in “% Inhibition” value: -23% for the first, -12% for the second.

First: CC#CCNc1ccc(C(N)=O)c(C)c1
Second: CNS(=O)(=O)CC(=O)N[C@H](c1ccc(F)cc1F)C(C)(C)C
The “% Inhibition” value of the first is higher: 0% for the first, -9% for the second.

Going from `O=C1CN(S(=O)(=O)c2ccc3c(c2)CCO3)CCN1c1nccs1` to `C[C@H]1CN(C(=O)N2CCc3cnccc32)CCS1(=O)=O`, the “% Inhibition” value falls from 4% to -5%.

`CC(C)c1oncc1NC(=O)C[C@@H]1C=CCCC1` and `Cc1cnc(NC(=O)C(=O)NCc2cc(C(C)C)no2)s1` are the same in “% Inhibition” value: -9% for the first, -9% for the second.

Compared with `CCN(C1CCN(C)CC1)C1CN(C(=O)CC(C)C)C1`, `CN1CCC(N(CCO)CCCc2c(F)cccc2Cl)CC1` is higher in “% Inhibition” value: -14% for the first, -5% for the second.

Going from `CC1(C)Oc2ccc(NC(=O)c3ccco3)cc2NC1=O` to `CCO[C@H]1CCN(C(=O)Cc2cc3ccccc3c(=O)[nH]2)C1`, the “% Inhibition” value falls from 30% to 15%.

First: COc1ccccc1/N=C(\NOC(C)=O)c1nonc1N
Second: Cn1c(C(=O)[C@H](C#N)C(=O)NC2CCCC2)cc2ccccc21
The “% Inhibition” value of the first is higher: -2% for the first, -3% for the second.

First: CC1(C)C2CCC1(C)C(OC(=O)CN1CCCCCC1)C2 (stereo not drawn)
Second: Cc1ccc(C(=O)N(C2CCCC2)C2CCCC2)cn1
The “% Inhibition” value of the first is lower: 0% for the first, 22% for the second.

Going from `Cc1nnc(NC(=O)c2cn3c4c(c(N5CCN(C)CC5)c(F)cc4c2=O)OC[C@@H]3C)s1` to `Cc1ccc(O)c(C(=O)N2CC[S+]([O-])CCC2C)c1` (stereo not drawn), the “% Inhibition” value rises from -9% to -4%.

First: CCN1CC[C@H](NCc2ccc(OCCN3CCOCC3)c(Cl)c2)C1=O
Second: CC[C@@H]1C(=O)NCCCN1C(=O)COc1ccc(Cl)cc1C
The “% Inhibition” value of the first is higher: 33% for the first, -11% for the second.

First: CCCc1oncc1C(=O)N1CCC[C@@]2(CNC(=O)O2)C1
Second: Cc1cc(C)n([C@H]2[C@@H]3OC[C@@H](O3)[C@@H](NCc3ccc4c(c3)OCO4)[C@@H]2O)n1
The “% Inhibition” value of the first is higher: -5% for the first, -10% for the second.

Compared with `Cc1cnn(-c2ccncc2NCc2ncc[nH]2)c1`, `C[C@H](Oc1ccc(-c2ccccc2)c(F)c1)c1ccn(S(=O)(=O)c2ccc(F)cc2)n1` is lower in “% Inhibition” value: -9% for the first, -12% for the second.

First: COCCc1nnc2n1CC1CCC(C2)N1C(=O)c1ccc(C(C)C)cc1 (stereo not drawn)
Second: Cc1ccc([C@H]2c3cc(OCC(=O)NC(C)C)ccc3CCN2C(=O)C2CCCC2)cc1
The Z score of the first is lower: -0.25 for the first, 0.59 for the second.

First: Cc1cc(C(=O)Nc2nc3ccc(F)cn3n2)cc(O)n1
Second: Cc1ccc(C2=C[C@@H](c3ccccc3Cl)n3nc(NC(=O)c4ccccc4F)nc3N2)cc1
The Z score of the first is lower: 0.96 for the first, 1.67 for the second.

Compared with `O=C(Nc1nnc(C2CC2)s1)N1CCC(CN2CCCC2)CC1`, `CN1CCC[C@H]1c1nc(C2CN(C(=O)C3CCCC3)C2)no1` is lower in Z score: 0.71 for the first, -0.57 for the second.

Going from `C[C@@H](CNC(=O)CCCn1ccnc1)Oc1ccccc1` to `CCN(CC(=O)Nc1cccc(S(N)(=O)=O)c1)[C@H](COC)Cc1ccccc1`, the Z score falls from 1.58 to 0.8.

Compared with `CN(C)C(=O)N(CCN1CCCCC1)[C@H]1CCN(C(=O)NCc2ccccc2)C1`, `O=C(NCc1cccs1)N1CCCCCCC1` is lower in Z score: 0.83 for the first, -0.1 for the second.

Going from `O=C(NCC1(OCCO)CCCC1)Nc1cccs1` to `O=C(CCCNC(=O)Nc1ccncc1F)NC1CC1`, the Z score falls from 1.23 to 0.51.

Going from `O=C(O)C1CCCN1C(=O)C1CC1c1ccccc1C(F)(F)F` (stereo not drawn) to `CN(C(=O)c1cc2ccccc2c(=O)n1C)C1CCCC1`, the Z score rises from 0.52 to 1.38.

Compared with `Cc1nn(C)c(C)c1NC(=O)CN1C(=O)COc2ccc(Cl)cc21`, `Cc1cccc(NC(=O)CN2C(=O)CC(c3cccc(Cl)c3)=Nc3cccnc32)c1` is lower in Z score: 0.15 for the first, -3.2 for the second.

Going from `O=C(NC[C@H]1CCC(=O)N(Cc2ccccc2)CC1)c1ccoc1` to `CS(=O)(=O)C[C@H]1CCCN(Cc2nc(-c3ccccc3)cs2)C1`, the Z score rises from -3.8 to 2.18.

First: Cc1cc(N(C)C)nc(N2CCO[C@@H](CN(C)C)C2)n1
Second: Cc1cc(C)c2oc(N3CCC[C@H](n4cc(CN)nn4)C3)nc2c1
The Z score of the first is lower: 0.71 for the first, 0.98 for the second.

Going from `Oc1ccccc1C1=NC(CN2CCCCC2)C(=S)C1c1ccccc1` (stereo not drawn) to `CC(=O)N1CCCN(C(=O)c2cc(-c3ccccc3)[nH]n2)CC1`, the Z score rises from 1.1 to 2.23.

Compared with `Cc1nc(CN2CCN(C(=O)c3ccc(C)n3C)CC2)n[nH]1`, `O=C(c1ccco1)N1CCN(c2cc3c(nn2)CCCC3)CC1` is higher in Z score: -0.46 for the first, 3.53 for the second.

Compared with `CCC(=O)N(C)c1nc2ccccc2n(CC(=O)Nc2cccc3ccccc23)c1=O`, `O=C(Cn1nc2ccc(-c3ccccc3)nn2c1=O)Nc1cccc(Cl)c1` is higher in Z score: 0.13 for the first, 0.55 for the second.

Compared with `O=C(c1cn2c3c(cccc3c1=O)CCC2)N1CCCC1`, `O=C1CCCN1c1ccc(N2CCCC2=O)cc1` is higher in Z score: 1.36 for the first, 2.98 for the second.

First: CC(C)[C@@H]1CCO[C@@H]1CNC(=O)NCc1ccc2occc2c1
Second: CCc1nnc(CNC(=O)c2ccc(CN3CCC(C)CC3)o2)s1
The Z score of the first is lower: -3.54 for the first, 1.49 for the second.

First: CC(=O)c1ccc(NC(=O)c2ncn3c2C(=O)N(C2CC2)[C@](C)(C(=O)NCc2ccc(C)cc2)C3)cc1
Second: O=C(C[C@@H]1NC(=O)N(Cc2ccc3c(c2)OCO3)C1=O)Nc1cccc(O)c1
The Z score of the first is higher: 2.28 for the first, 1.49 for the second.

First: CC#CCNc1ccc(C(N)=O)c(C)c1
Second: CNS(=O)(=O)CC(=O)N[C@H](c1ccc(F)cc1F)C(C)(C)C
The Z score of the first is lower: -0.06 for the first, 1.48 for the second.

Going from `O=C1CN(S(=O)(=O)c2ccc3c(c2)CCO3)CCN1c1nccs1` to `C[C@H]1CN(C(=O)N2CCc3cnccc32)CCS1(=O)=O`, the Z score rises from -0.46 to 0.74.

Compared with `CC(C)c1oncc1NC(=O)C[C@@H]1C=CCCC1`, `Cc1cnc(NC(=O)C(=O)NCc2cc(C(C)C)no2)s1` is higher in Z score: 0.93 for the first, 1.33 for the second.

First: CCN(C1CCN(C)CC1)C1CN(C(=O)CC(C)C)C1
Second: CN1CCC(N(CCO)CCCc2c(F)cccc2Cl)CC1
The Z score of the first is higher: 1.85 for the first, 0.86 for the second.

Going from `CC1(C)Oc2ccc(NC(=O)c3ccco3)cc2NC1=O` to `CCO[C@H]1CCN(C(=O)Cc2cc3ccccc3c(=O)[nH]2)C1`, the Z score rises from -4.27 to -1.91.

First: COc1ccccc1/N=C(\NOC(C)=O)c1nonc1N
Second: Cn1c(C(=O)[C@H](C#N)C(=O)NC2CCCC2)cc2ccccc21
The Z score of the first is lower: 0.33 for the first, 0.4 for the second.

Going from `CC1(C)C2CCC1(C)C(OC(=O)CN1CCCCCC1)C2` (stereo not drawn) to `Cc1ccc(C(=O)N(C2CCCC2)C2CCCC2)cn1`, the Z score falls from -0.02 to -2.53.

Going from `Cc1nnc(NC(=O)c2cn3c4c(c(N5CCN(C)CC5)c(F)cc4c2=O)OC[C@@H]3C)s1` to `Cc1ccc(O)c(C(=O)N2CC[S+]([O-])CCC2C)c1` (stereo not drawn), the Z score falls from 1.13 to 0.57.

Compared with `CCN1CC[C@H](NCc2ccc(OCCN3CCOCC3)c(Cl)c2)C1=O`, `CC[C@@H]1C(=O)NCCCN1C(=O)COc1ccc(Cl)cc1C` is higher in Z score: -0.63 for the first, 1.31 for the second.

Going from `CCCc1oncc1C(=O)N1CCC[C@@]2(CNC(=O)O2)C1` to `Cc1cc(C)n([C@H]2[C@@H]3OC[C@@H](O3)[C@@H](NCc3ccc4c(c3)OCO4)[C@@H]2O)n1`, the Z score rises from 0.65 to 1.26.

First: Cc1cnn(-c2ccncc2NCc2ncc[nH]2)c1
Second: C[C@H](Oc1ccc(-c2ccccc2)c(F)c1)c1ccn(S(=O)(=O)c2ccc(F)cc2)n1
The Z score of the first is lower: 0.98 for the first, 2.32 for the second.
